{
  "source": "PubChem BioAssay AID1347073",
  "about": "(National Center for Advancing Translational Sciences (NCATS), 2019)",
  "note": "About 200 (0.44%) of roughly 45,000 compounds were called active. Not shown: some 7% with an inconclusive outcome. The call rests on the fitted dose curve; in most records, active means well fitted activation curve with a large enough effect; inconclusive means small, poorly fitted or top-dose-only effect; inactive means no such curve, though single readings can be large or run the other way. Some of the results follow.",
  "data": [
    {"test": "qHTS of TDP-43 Inhibitors: NCGC Sytravon Library Screen; further: 0% is about no effect; nearly all actives have a fitted effect of over 55% in size", "details": "yeast TDP-43 toxicity rescue, BacTiter-Glo growth, 24 h; series mostly up to 46.1 µM; growth rescue (activation): at the top concentration", "procedure,_shortened": "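TDP-43-expressing yeast, pregrown in raffinose, seeded at OD600 0.02 in galactose medium with compound for 24 hr at 30 deg C. Growth read by BacTiter-Glo luminescence, so rescue of toxicity appears as activation.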", "values": [
      {"smiles": "Cc1ccc(-c2nc3ccccc3c(=O)n2NC(=O)c2cccs2)cc1", "growth rescue (activation)": "inactive: -8.31%"},
      {"smiles": "CCc1ccc(NC(=O)C2CCN(S(=O)(=O)c3cccs3)CC2)cc1", "growth rescue (activation)": "inactive: -2.72%"},
      {"smiles": "CCOC(=O)Cc1nc(-c2ccccc2)n[nH]1", "growth rescue (activation)": "inactive: -0.7%"},
      {"smiles": "CCOC(=O)c1nc(Nc2ccc(OC)cc2)c2ccccc2n1", "growth rescue (activation)": "inactive: 8.27%"},
      {"smiles": "COc1ccc(NC2=C(NCCO)C(=O)c3ccccc3C2=O)cc1", "growth rescue (activation)": "inactive: -11.6%"},
      {"smiles": "Cc1cc(C)n(-c2ccc(F)cc2CN2CCN(C3CCCC3)C(CCO)C2)n1", "note": "(centres undefined)", "growth rescue (activation)": "inactive: -1.01%"},
      {"smiles": "Cc1cccc2nc(CSc3ccccc3C(=O)O)cn12", "growth rescue (activation)": "inactive: 4.23%"},
      {"smiles": "COc1ccc(S(=O)(=O)N(C)CC(=O)NCc2ccco2)cc1OC", "growth rescue (activation)": "inactive: -2.65%"},
      {"smiles": "COC(=O)c1cc(C(=O)OC)cc(N2C(=O)CC(Sc3nc(C)cc(C)n3)C2=O)c1", "note": "(centres undefined)", "growth rescue (activation)": "inactive: -12.1%"},
      {"smiles": "Cc1ccc(NC(=O)CCC(=O)NNC(=O)c2ccccc2[N+](=O)[O-])c(C)c1", "growth rescue (activation)": "inactive: 0.93%"},
      {"smiles": "NS(=O)(=O)c1ccc(CCNC(=O)CN2CCN(c3cccc(Cl)c3)CC2)cc1", "growth rescue (activation)": "inactive: 17.5%"},
      {"smiles": "COc1ccc(C2c3c(-c4ccccc4O)n[nH]c3C(=O)N2Cc2ccco2)cc1OC", "note": "(centres undefined)", "growth rescue (activation)": "inactive: 31.3%"},
      {"smiles": "COc1ccc(OCc2cc(C(=O)N(C)Cc3cnccn3)no2)c(Cl)c1", "growth rescue (activation)": "inactive: 15.2%"},
      {"smiles": "COc1ccccc1S(=O)(=O)N1CCn2cccc2C1C", "note": "(centres undefined)", "growth rescue (activation)": "inactive: 24%"},
      {"smiles": "COc1ccc(C(=O)N(CCc2ccccc2)Cc2ccccc2)c(OC)n1", "growth rescue (activation)": "inactive: 23.1%"},
      {"smiles": "COc1cccc2cc(C(C)N(CCCN3CCOCC3)C(=S)Nc3cccc(C)c3C)oc12", "note": "(centres undefined)", "growth rescue (activation)": "inactive: -8.43%"},
      {"smiles": "CN(CCO)c1cc(N2CCC3(CC2)OCCO3)c2nonc2c1[N+](=O)[O-]", "growth rescue (activation)": "inactive: 1.94%"},
      {"smiles": "CC(C)c1ccc(C(=O)N2CCCCC2c2cc(C(=O)Nc3ccncc3)no2)cc1", "note": "(centres undefined)", "growth rescue (activation)": "inactive: 17.4%"},
      {"smiles": "Cc1ccc(-c2cc(-c3n[nH]c(=S)n3C)c3ccccc3n2)cc1", "growth rescue (activation)": "inactive: 17.2%"},
      {"smiles": "Cc1ccc(-n2c(=O)c3sccc3n(CC(=O)NCC3CCCO3)c2=O)cc1F", "note": "(centres undefined)", "growth rescue (activation)": "inactive: 1.9%"},
      {"smiles": "N#Cc1ccc(S(=O)(=O)N2CCCCC2c2cc(C(=O)NCc3ccccc3)no2)cc1", "note": "(centres undefined)", "growth rescue (activation)": "inactive: 14.5%"},
      {"smiles": "O=C(COC(=O)c1ccccc1Nc1ccc(SC(F)F)cc1)NC1CC1", "growth rescue (activation)": "inactive: 24%"},
      {"smiles": "CC(=O)c1ccc(N2CCN(C(=S)Nc3ccccc3F)CC2)cc1", "growth rescue (activation)": "inactive: 17.8%"},
      {"smiles": "O=C1C2CCCN2C(=S)N1c1ccc(Cl)cc1", "note": "(centres undefined)", "growth rescue (activation)": "inactive: -10.8%"},
      {"smiles": "COC(=O)c1cccc(NC(=O)Cc2nc(-c3ccccc3)sc2-c2ccc(C)cc2)c1", "growth rescue (activation)": "inactive: -11.5%"},
      {"smiles": "Cc1ccc(S(=O)(=O)N2CCN(C(=O)N3CCCC3)CC2)cc1", "growth rescue (activation)": "inactive: -14.8%"},
      {"smiles": "COc1ccc(S(=O)(=O)N2CCC(NC(=O)N3CCOCC3)CC2)cc1", "growth rescue (activation)": "inactive: -12.7%"},
      {"smiles": "Cc1cc(C)nc(NS(=O)(=O)c2ccc(N/C=C/C(=O)c3ccc(Cl)c(Cl)c3)cc2)n1", "growth rescue (activation)": "inactive: 10.1%"},
      {"smiles": "CC(=O)C(C)Sc1nnc(-c2ccccc2F)n1C1CC1", "note": "(centres undefined)", "growth rescue (activation)": "inactive: 14.3%"},
      {"smiles": "COc1ccc(NS(=O)(=O)c2ccc(O)c(C(=O)OCC(=O)Nc3ccc4c(c3)OCCO4)c2)cc1", "growth rescue (activation)": "inactive: -23.9%"},
      {"smiles": "CC1Oc2ccccc2N(CC(=O)NC2CC2)C1=O", "note": "(centres undefined)", "growth rescue (activation)": "inactive: -7.5%"},
      {"smiles": "CCOc1ncccc1C(=O)OCC(=O)Nc1cccc(S(N)(=O)=O)c1", "growth rescue (activation)": "inactive: 0.852%"},
      {"smiles": "O=C(OCCOc1ccccc1F)c1cc(S(=O)(=O)N2CCOCC2)ccc1F", "growth rescue (activation)": "inactive: -1.29%"},
      {"smiles": "COc1cc(/C=C2/C(=N)N3N=C(C)SC3=NC2=O)ccc1OS(=O)(=O)c1ccc(C)cc1", "growth rescue (activation)": "inactive: -4.8%"},
      {"smiles": "O=C(NC(c1ccc(Cl)cc1)c1cnccn1)C1CCN(Cc2ccc(Cl)cc2)CC1", "note": "(centres undefined)", "growth rescue (activation)": "inactive: 12.4%"},
      {"smiles": "O=C(CCCN1CCc2[nH]c3ccc(F)cc3c2C1)c1ccc(F)cc1", "growth rescue (activation)": "inactive: 7.2%"},
      {"smiles": "Nc1cccc(C2=Nc3cccc4cccc(c34)N2)c1", "growth rescue (activation)": "inactive: -6.61%"},
      {"smiles": "CCOC(=O)CSc1ncnc2c1cnn2-c1ccc(Cl)cc1", "growth rescue (activation)": "inactive: -17.7%"},
      {"smiles": "CCN(CC)S(=O)(=O)c1cc(NC(=O)CSc2nnc(-c3cccs3)o2)ccc1C", "growth rescue (activation)": "inactive: -12.4%"},
      {"smiles": "CCn1c(SCC(=O)N/N=C/c2cc(OC)c(OC)c(OC)c2)nc2ccccc21", "growth rescue (activation)": "inactive: 15.8%"},
      {"smiles": "N#Cc1ccccc1COC(=O)c1cc(=O)c2ccccc2o1", "growth rescue (activation)": "inactive: -1.86%"},
      {"smiles": "COC(=O)C(Cc1ccccc1)NC(=O)C12CC3CC(CC(C3)C1)C2", "note": "(centres undefined)", "growth rescue (activation)": "inactive: -2.58%"},
      {"smiles": "CC(=O)Nc1ccc(N2CCOCC2)c([N+](=O)[O-])c1", "growth rescue (activation)": "inactive: -6.07%"},
      {"smiles": "COc1cccc(CN2CC(C(=O)NCCCCc3ccccn3)CCC2=O)c1", "note": "(centres undefined)", "growth rescue (activation)": "inactive: 15.9%"},
      {"smiles": "CSc1ccc(S(=O)(=O)N2CCC(C(=O)Nc3ccc(NC(C)=O)cc3)CC2)cc1", "growth rescue (activation)": "inactive: 20.6%"},
      {"smiles": "Oc1ccccc1/C=N/Nc1ccccc1", "growth rescue (activation)": "inactive: 8.72%"},
      {"smiles": "CCOC(=O)C1(Cc2ccccc2)CCN(Cc2ccc(C3CCCCO3)s2)CC1", "note": "(centres undefined)", "growth rescue (activation)": "inactive: -28.6%"},
      {"smiles": "S=C(NCCN1CCOCC1)Nc1ccc(Cl)cc1", "growth rescue (activation)": "inactive: 10.1%"},
      {"smiles": "CC(=O)N1CCC(N(CCN2CCOCC2)C(=S)Nc2ccc(C)c(C)c2)CC1", "growth rescue (activation)": "inactive: -3.59%"},
      {"smiles": "CN1CCN(NC(=O)c2ccc(Br)c(S(=O)(=O)N3CCOCC3)c2)CC1", "growth rescue (activation)": "inactive: 6.96%"},
      {"smiles": "CSc1nc(C)c(CCO)c(=O)[nH]1", "growth rescue (activation)": "inactive: -5.11%"},
      {"smiles": "CCC(C)(C)NC(=O)c1cc(S(=O)(=O)N2CCCCC2)ccc1N1CCOCC1", "growth rescue (activation)": "inactive: -4.4%"},
      {"smiles": "CC(C)C(=O)NNC(=O)CSc1nc(C2CCCCC2)nc2ccccc12", "growth rescue (activation)": "inactive: 4.33%"},
      {"smiles": "O=C(NC1CCN(C(=O)Nc2cccc(Cl)c2)CC1)c1ccco1", "growth rescue (activation)": "inactive: 12.7%"}
    ]}
  ]
}
